Laboratory results: PubChem BioAssay AID1745853 (National Center for Advancing Translational Sciences (NCATS), 2022)
This is one part of the list. Shown are side measurements of this screen, not its main read-out; they come without a call.

Experiments:
Test in all cases: Primary Screen for Target Class Profiling of Small Molecule Inhibitors of Methyltransferases
[1] = target: Glycine N-methyltransferase (Homo sapiens) (UniProt Q14749); conditions: purified enzyme, MTase-Glo SAH luminescence; measured here: GNMT inhibition; at 40 µM; stronger effect = lower value
Summary of the method: (§1)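 Each enzyme was assayed with SAM and its substrate. SAH formation detected by MTase-Glo luminescence; single-point 40 uM screen[…].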

[2] = target: Guanidinoacetate N-methyltransferase (Homo sapiens) (UniProt Q14353); conditions: purified enzyme, MTase-Glo SAH luminescence; measured here: GAMT inhibition; at 40 µM; stronger effect = lower value
Summary of the method: as §1

[3] = target: Histamine N-methyltransferase (Homo sapiens) (UniProt P50135); conditions: purified enzyme, MTase-Glo SAH luminescence; measured here: HNMT inhibition; at 40 µM; stronger effect = lower value
Summary of the method: as §1

[4] = target: Nicotinamide N-methyltransferase (Homo sapiens) (UniProt P40261); conditions: purified enzyme, MTase-Glo SAH luminescence; measured here: NNMT inhibition; at 40 µM; stronger effect = lower value
Summary of the method: as §1

[5] = target: Phenylethanolamine N-methyltransferase (Homo sapiens) (UniProt P11086); conditions: purified enzyme, MTase-Glo SAH luminescence; measured here: PNMT inhibition; at 40 µM; stronger effect = lower value
Summary of the method: as §1
% is scaled to controls: 0 for no effect and ±100 for the full control effect.

Row | SMILES | activity change, negative = inhibition [1] [%] | activity change, negative = inhibition [2] [%] | activity change, negative = inhibition [3] [%] | activity change, negative = inhibition [4] [%] | activity change, negative = inhibition [5] [%]
1 | CO[C@H]1C(=O)N(C2CCN(C(=O)c3ccnn3C)CC2)[C@H]1c1ccncc1 | -2.14 | -3.74 | -3.09 | -4.06 | 4.5
2 | C=Cc1ccc(Cn2nc3n(CCC(C)C)c(=O)c4ccccc4n3c2=O)cc1 | -5.51 | 3 | 0.513 | -7.8 | -2.14
3 | CCN(CC)C(=O)C(c1ccccc1)N1CCN(c2ccc(NC(=O)c3ccccc3-c3cccnc3)cc2F)CC1 (stereo not drawn) | -3.89 | -2.28 | 5.36 | -16.9 | -2.89
4 | O=C(C[C@@H]1CCNC[C@@H]1Cc1cc(CSc2ccccc2)on1)N1CCN(c2ccccc2)CC1 | -7.79 | -10.1 | -11.4 | -19.4 | -14.9
5 | CC(=O)Nc1c2n(c3ccc(F)cc13)CC(C)(C(=O)NC1CCCCCC1)N(CC1CCCO1)C2=O (stereo not drawn) | -7.61 | -3.52 | -13.3 | -15.5 | -1.37
6 | CCCn1c(=O)c2ccccc2n2c(SCC(=O)NCc3ccccc3Cl)nnc12 | 0.218 | 0.309 | 5.04 | 1.7 | 3.58
7 | Nc1nc2c(c(N3CC[C@@H](O)C3)n1)CCN(C(=O)[C@H]1CCCO1)CC2 | -0.814 | 0.955 | 0.035 | 1.01 | 1.97
8 | CC(C)(O)CCc1ccc(CN2CCN([C@H]3CCCC[C@@H]3O)CC2)cc1 | -0.224 | 0.467 | -12.2 | 0.507 | -6.15
9 | COc1cccc(Nc2cccc(CN3CCCC(C)(NC(C)=O)C3)c2)c1 (stereo not drawn) | -4.5 | -7.06 | -18.4 | -12.5 | -6.41
10 | CC(C)NC(=O)CSc1nnc2n(CCc3ccccc3)c(=O)c3ccccc3n12 | 0.393 | 0.95 | 5.73 | 0.886 | 1.89
11 | COc1cccc(N2C(=O)c3cc(-c4cccs4)nn3CC2(C)C(=O)NC2CCCCC2)c1 (stereo not drawn) | -5.8 | 1.53 | 1.03 | 5.75 | -1.58
12 | O[C@@H]1C[C@@H](c2nc(-c3cnccn3)no2)N(Cc2cccs2)C1 | -6.06 | -9.69 | -6.09 | -18.3 | -10.6
13 | Cc1ccc(S(=O)(=O)c2nnn3c2nc(N2CCC(C(N)=O)CC2)c2ccccc23)cc1C | -15.5 | -6.22 | -2.75 | -10.3 | -6.33
14 | CN1C(=O)c2cc(C(=O)NCc3ccccc3Cl)nn2CC1(C)C(=O)NCc1ccc(F)cc1 (stereo not drawn) | 7.86 | 3.32 | 9.25 | 0.241 | 5.72
15 | Cc1ccccc1CNC(=O)c1cc2cn(C(C)C)cc2s1 | -8.44 | -0.007 | -1.3 | -4.45 | -17.2
16 | O=c1c2nc(NCCOc3ccccc3)ccc2ncn1Cc1ccccc1 | -8.61 | 2.71 | -4.75 | -9.47 | -4.86
17 | CC(C)Oc1ccc(CN2C(=O)c3cc4occc4n3CC2(C)C(=O)NC2CCCC(C)C2C)cc1 (stereo not drawn) | 0.712 | -7.35 | 7.17 | -1.75 | -0.12
18 | COc1ccc(CN2C(=O)c3c(-n4cccc4)c4ccccc4n3CC2(C)C(=O)NC2CCCC2)cc1 (stereo not drawn) | 5.01 | 0.335 | 0.802 | 3.65 | 2.9
19 | CCCn1c(=O)c2ccc(Cl)cc2n2c(=O)n(Cc3ccccc3Cl)nc12 | 1.6 | 2.75 | 4.26 | 2.06 | 3.64

Row | SMILES | activity change, negative = inhibition [1] [%] | activity change, negative = inhibition [2] [%] | activity change, negative = inhibition [3] [%] | activity change, negative = inhibition [4] [%] | activity change, negative = inhibition [5] [%]
20 | COc1ccc2cc3n(c2c1)CC(C)(C(=O)NC1CCCCC1)N(CCC(C)C)C3=O (stereo not drawn) | -1.95 | 4.97 | -0.426 | 3.19 | -6.35
21 | CSc1cccc(N2C(=O)CSc3c(c4ccccc4n3C)C2C(=O)NCc2ccc(F)cc2)c1 (stereo not drawn) | -0.764 | 0 | 11.8 | 9.9 | 7.16
22 | Cc1cc(C)nc(N2C[C@H]3OC(=O)N(CCc4cccc(Cl)c4)[C@H]3C2)n1 | -6.7 | -5.47 | -1.18 | -5.37 | -2.32
23 | CC1(C(=O)NCC2CCCO2)Cn2c(cc3ccccc32)C(=O)N1Cc1cccc(F)c1 (stereo not drawn) | 0.29 | 4.37 | 0.292 | 0.396 | -0.283
24 | CCC[C@@H]1CN(C(=O)c2ccccc2-c2ccccc2F)C[C@H]1NC(C)=O | -1.07 | -10.1 | -1.3 | -6.49 | 0.555
25 | COC(=O)c1cc2n(n1)CC(C)(C(=O)NC1CCC(C)CC1)N(c1ccc(OC)cc1)C2=O (stereo not drawn) | 4.06 | 1.3 | 7.09 | 8.37 | 2.42
26 | O=C1CC(=O)Nc2cc(S(=O)(=O)Nc3cccc(Br)c3)ccc2N1 | -2.18 | 2.04 | 1.62 | 0.57 | 3.95
27 | COc1ccc(-c2cc3n(n2)CC(C)(C(=O)NCc2ccccc2OC)N(c2ccc(F)cc2)C3=O)cc1 (stereo not drawn) | -1.41 | 3.87 | -0.823 | -3.03 | -1.98
28 | COCCCNC(=O)C1(C)Cn2nc(-c3ccccc3)cc2C(=O)N1c1ccc(C(C)C)cc1 (stereo not drawn) | -3.05 | 2.81 | -3.18 | -4.49 | -7.44
29 | CC1(C)CC[C@]2(C(=O)O[C@@H]3O[C@H](CO)[C@@H](O)[C@H](O)[C@H]3O)CC[C@]3(C)C(=CCC4[C@@]5(C)CC[C@H](O[C@@H]6O[C@H](C(=O)O)[C@@H](O)[C@H](O[C@@H]7O[C@H](CO)[C@H](O)[C@H](O)[C@H]7O)[C@H]6O)C(C)(C)C5CC[C@]43C)C2C1 (stereo partly drawn) | -1.67 | 7.06 | 8.19 | -7.74 | -2.13
30 | CCCCn1c(=O)c2sccc2n2c(CCC(=O)NCc3ccncc3)nnc12 | 4.74 | 0.032 | 7.59 | 11.5 | 2.88
31 | CC[C@H](C)C(=O)O[C@H]1C[C@@H](C)C=C2C=C[C@H](C)[C@H](CC[C@@H]3C[C@@H](O)CC(=O)O3)[C@H]21 | -0.645 | 0.035 | 1.15 | -14.8 | -9.23
32 | O=C(NCCCc1ccccc1F)[C@H]1CCC[C@@H](O)C1 | -0.638 | -2.2 | 0.536 | -6.18 | -2.09
33 | CSc1ccc(CCNC(=O)c2cc3n(n2)CCCN(Cc2ccc(F)cc2)C3=O)cc1 | -5.26 | 0 | -0.403 | -6.05 | 3.22
34 | CSc1ccc(CCNC(=O)CNC(=O)C2(C)Cn3c(cc4ccccc43)C(=O)N2C)cc1 (stereo not drawn) | 2.92 | 6.32 | 9.37 | 3.56 | 0.395
35 | Cc1ccc(CNC(=O)C2(C)Cc3ccccc3C(=O)N2c2cccc(C)c2)cc1 (stereo not drawn) | 1.75 | 3.54 | 13 | 1.59 | 10.3
36 | CC1CCC(NC(=O)C2(C)Cn3c(ccc3-c3ccccc3)C(=O)N2CCc2cccs2)CC1 (stereo not drawn) | 3.82 | 0.479 | -3.99 | -1.95 | 1.09
37 | O=C(/C=C/c1nc2ccccc2[nH]1)c1c(-c2ccccc2)c2cc(Cl)ccc2[nH]c1=O | – | -30.6 | – | -45.3 | -3.13
38 | CC1(C(=O)NC2CCCCCCC2)Cn2c(cc3sccc32)C(=O)N1C1CCCCC1 (stereo not drawn) | 3.16 | -9.5 | 7.75 | 1.31 | 0.673

Row | SMILES | activity change, negative = inhibition [1] [%] | activity change, negative = inhibition [2] [%] | activity change, negative = inhibition [3] [%] | activity change, negative = inhibition [4] [%] | activity change, negative = inhibition [5] [%]
39 | CC(C)(C)c1nn2c(SCC(=O)Nc3cccc(Cl)c3)nnc2[nH]c1=O | 5.1 | 1.46 | 5.27 | -5.57 | -3.44
40 | CCCN(CC1CC1)C(=O)[C@@H]1COCC(=O)N1Cc1ccccc1 | -8.33 | -13.2 | -4.23 | -18.4 | -6.95
41 | CC1(CNCc2ccccc2)COc2ccc(C(=O)NCc3cccs3)cc2N1 (stereo not drawn) | -4.46 | -0.925 | -14.3 | -4.73 | 0.984
42 | CCc1ccc(CNC(=O)CNC(=O)C2(C)Cn3c(cc4ccccc43)C(=O)N2C)cc1 (stereo not drawn) | -1.59 | 3.18 | 5.6 | 1.44 | 3.46
43 | CC1(C)CC[C@]23CO[C@@]4(CCC5[C@@]6(C)CC[C@H](O[C@@H]7OC[C@H](O[C@@H]8O[C@H](CO)[C@@H](O)[C@H](O)[C@H]8O[C@@H]8OC[C@@H](O)[C@H](O)[C@H]8O)[C@H](O)[C@H]7O[C@@H]7O[C@H](CO)[C@@H](O)[C@H](O)[C@H]7O)[C@@](C)(CO)C6CC[C@@]5(C)[C@]4(C)C[C@H]2O)[C@@H]3C1 (stereo partly drawn) | 1.09 | 6.78 | 4.55 | -3.41 | 5.81
44 | CC(=O)Nc1c2n(c3ccc(F)cc13)CC(C)(C(=O)NCCC(C)C)N(CCc1ccccc1)C2=O (stereo not drawn) | 0.74 | 0.058 | 5.6 | 1.27 | -1.98
45 | CC(C)CCNC(=O)C1(C)Cn2c(nc3ccccc32)C(=O)N1CCc1ccc(Cl)cc1 (stereo not drawn) | -4.06 | 0 | 5.67 | -3.53 | 1.89
46 | CC(C)CCNC(=O)C1(C)Cn2c(cc3ccccc32)C(=O)N1Cc1cccc(Cl)c1 (stereo not drawn) | 4.73 | 3.89 | 8.29 | 5.89 | 2.86
47 | O=C(CCCCC1CCCCC1)N1CCC(c2cnc[nH]2)CC1 | -2.58 | 7.01 | 7.85 | -19.2 | 0.366
48 | COCc1nnc2n1CCC(NC(=O)Cc1c[nH]c3ccccc13)CC2 (stereo not drawn) | -0.536 | -1.11 | -0.754 | 6.12 | 1.87
49 | COC(=O)c1cc2n(n1)CC(C)(C(=O)NC1CCCCCC1)N(c1cccc(OC)c1)C2=O (stereo not drawn) | 0.186 | 1.07 | 2.68 | -3.28 | -4.21
50 | N#Cc1cccnc1-c1cccc(C(=O)NCCN[S+](=O)([O-])c2cccc(C(F)(F)F)c2)c1 | -2.75 | -5.05 | -1.09 | -6.39 | -10.5
51 | Cc1cc(CNS(=O)(=O)c2ccc3c(c2)oc(=O)n3C)c(C)n1-c1ccc(F)cc1 | -2.44 | 1.94 | 11.2 | 4.87 | 6.41
52 | CCCNC(=O)N1CCn2cccc2C1CCC (stereo not drawn) | 6.11 | 2.9 | 6.91 | 4.01 | 8.41
53 | O=C(Nc1ccccc1)N1CCC(Cc2cnc3ccccc3c2)CC1 | -4.68 | 2.8 | 4.26 | -18.6 | -6.66
54 | O=C(N[C@@H]1CCN(C(=O)c2n[nH]c3ccccc23)C[C@H]1O)c1cccnc1 | -0.2 | -2.52 | 3.14 | -3.42 | 1.89
55 | Cc1ccc(NC(=O)CSc2nnc3n(Cc4ccccc4)c(=O)c4ccccc4n23)cc1 | -0.832 | -0.401 | 2.35 | 0.219 | -0.293
56 | CS(=O)(=O)N1CC(F)(F)C[C@H]1c1nc(C2CC2)no1 | 0.089 | -0.671 | 2.03 | 0.375 | 0.532
57 | Cc1cc(C)cc(N2C(=O)CSc3c(c4ccccc4n3C)C2C(=O)NCc2ccc(F)cc2)c1 (stereo not drawn) | -2.99 | 1.12 | 4.1 | 0.331 | 0.997
